Test results as given in US20260265359A1 (Hoffmann-La Roche, published 2026).

T1: recombinant human Ang-1 (human, UniProt Q15389 20-498, limits assumed)
T1 construct: also called Angiopoietin 1
T1 sequence (looked up): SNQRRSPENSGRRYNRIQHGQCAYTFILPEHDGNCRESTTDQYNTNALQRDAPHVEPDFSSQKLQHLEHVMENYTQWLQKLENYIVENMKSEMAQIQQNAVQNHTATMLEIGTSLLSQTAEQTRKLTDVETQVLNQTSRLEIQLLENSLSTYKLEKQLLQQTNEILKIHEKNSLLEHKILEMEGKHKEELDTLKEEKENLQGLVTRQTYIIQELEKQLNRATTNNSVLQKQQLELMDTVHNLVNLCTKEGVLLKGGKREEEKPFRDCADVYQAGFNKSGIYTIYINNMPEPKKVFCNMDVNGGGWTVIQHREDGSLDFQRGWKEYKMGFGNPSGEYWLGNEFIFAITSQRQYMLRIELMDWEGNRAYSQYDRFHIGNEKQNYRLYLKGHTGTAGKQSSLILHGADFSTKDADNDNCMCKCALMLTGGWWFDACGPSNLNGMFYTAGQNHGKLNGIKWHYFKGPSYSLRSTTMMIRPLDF

T2: recombinant human Ang-2 (human, UniProt O15123 19-496, limits assumed)
T2 construct: also called Angiopoietin-2; hAng-2
T2 sequence (looked up): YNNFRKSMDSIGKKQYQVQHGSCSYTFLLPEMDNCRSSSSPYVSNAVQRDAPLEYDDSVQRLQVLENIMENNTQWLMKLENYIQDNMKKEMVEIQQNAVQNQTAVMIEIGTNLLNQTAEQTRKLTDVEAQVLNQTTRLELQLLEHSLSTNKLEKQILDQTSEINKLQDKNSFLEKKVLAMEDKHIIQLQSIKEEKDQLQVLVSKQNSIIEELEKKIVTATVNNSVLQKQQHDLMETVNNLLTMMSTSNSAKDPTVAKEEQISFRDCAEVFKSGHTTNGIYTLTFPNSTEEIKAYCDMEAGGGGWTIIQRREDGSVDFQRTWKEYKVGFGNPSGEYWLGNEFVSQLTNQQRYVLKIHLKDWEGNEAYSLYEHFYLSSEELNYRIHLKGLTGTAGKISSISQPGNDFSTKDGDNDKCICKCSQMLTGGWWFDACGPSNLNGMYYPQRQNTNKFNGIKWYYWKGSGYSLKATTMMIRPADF


Assays:
[1] = target: T1, recombinant human Ang-1; experiment: ELISA on plate-coated recombinant human Ang-1; anti-human IgG1-Fc-HRP, OD450 (curve reaches only OD450 about 0.2 at about 10 µg/mL)
Experimental: (§1) After non-specific blocking using 1% BSA at 25° C. for 1 hour, a series of dilutions of test antibodies (“Abs”) were added into the coated wells and incubated at 25° C. for 1 hour. The bound Abs were detected using a secondary Ab (goat anti-human IgG1-Fc) conjugated with HRP followed by OD₄₅₀ reading.
The same ELISA procedure was performed with recombinant human Ang-1.

[2] = target: T2, recombinant human Ang-2; experiment: ELISA on plate-coated recombinant human Ang-2; anti-human IgG1-Fc-HRP, OD450
Experimental: as §1

[3] = target: T1, recombinant human Ang-1; experiment: SPR Biacore, 25 C; test antibody captured by anti-human IgG (Fc) on CM5 chip, target protein as analyte
Experimental: SPR Biacore assay was performed at 25° C. with HBS-EP+ as a running buffer. The assay was performed by immobilization of the anti-human IgG (Fc) antibody onto the CM5 sensor chip surface and determined the level of ligand immobilization. […] Test antibodies were injected over the surface of Series S Sensor Chip CM5 as Capture. The analytes (target proteins) were diluted with running buffer into different concentrations and injected over the sensor surface as the association phase for affinity and kinetics measurements. The 1:1 binding model was used to measure the binding affinity and/or kinetics.

| EC50 [1] | EC50 [2] | binding result [3] | Binder |
| --- | --- | --- | --- |
| 6.35 µM | 0.000436 µM | – | EB-105BI-7CA (other, VEGFR-1-D2-VEGFR-2-D3 at the N-terminus of the tocilizumab light chain; Made in CHO cells; also called B21138001) heavy: QVQLQESGPGLVRPSQTLSLTCTVSGYSITSDHAWSWVRQPPGRGLEWIGYISYSGITTYNPSLKSRVTMLRDTSKNQFSLRLSSVTAADTAVYYCARSLARTTAMDYWGQGSLVTVSSASTKGPSVFPLAPSSKSTSGGTAALGCLVKDYFPEPVTVSWNSGALTSGVHTFPAVLQSSGLYSLSSVVTVPSSSLGTQTYICNVNHKPSNTKVDKKV[human IgG1 Fc skipped]GGSGGGGSGGGGSAQTNFMPMDDLEQRLYEQFILQQGLE light: SDTGRPFVEMYSEIPEIIHMTEGRELVIPCRVTSPNITVTLKKFPLDTLIPDGKRIIWDSRKGFIISNATYKEIGLLTCEATVNGHLYKTNYLTHRQTNTIIDVVLSPSHGIELSVGEKLVLNCTARTELNVGIDFNWEYPSSKHQHKKLVNRDLKTQSGSEMKKFLSTLTIDGVTRSDQGLYTCAASSGLMTKKNSTFVRVHEKDIQMTQSPSSLSASVGDRVTITCRASQDISSYLNWYQQKPGKAPKLLIYYTSRLHSGVPSRFSGSGSGTDFTFTISSLQPEDIATYYCQQGNTLPYTFGQGTKVEIKRTVAAPSVFIFPPSDEQLKSGTASVVCLLNNFYPREAKVQWKVDNALQSGNSQESVTEQDSKDSTYSLSSTLTLSKADYEKHKVYACEVTHQGLSSPVTKSFNRGEC |
| – | – | no binding | EB-105BI-7CB (other, Trispecific antibody fusion protein, first embodiment; lead molecule; also called B21138002) heavy: QVQLQESGPGLVRPSQTLSLTCTVSGYSITSDHAWSWVRQPPGRGLEWIGYISYSGITTYNPSLKSRVTMLRDTSKNQFSLRLSSVTAADTAVYYCARSLARTTAMDYWGQGSLVTVSSASTKGPSVFPLAPSSKSTSGGTAALGCLVKDYFPEPVTVSWNSGALTSGVHTFPAVLQSSGLYSLSSVVTVPSSSLGTQTYICNVNHKPSNTKVDKKV[human IgG1 Fc skipped]GGSGGGGSAQTNFMPMDDLEQRLYEQFILQQGLE light: SDTGRPFVEMYSEIPEIIHMTEGRELVIPCRVTSPNITVTLKKFPLDTLIPDGKRIIWDSRKGFIISNATYKEIGLLTCEATVNGHLYKTNYLTHRQTNTIIDVVLSPSHGIELSVGEKLVLNCTARTELNVGIDFNWEYPSSKHQHKKLVNRDLKTQSGSEMKKFLSTLTIDGVTRSDQGLYTCAASSGLMTKKNSTFVRVHEKDIQMTQSPSSLSASVGDRVTITCRASQDISSYLNWYQQKPGKAPKLLIYYTSRLHSGVPSRFSGSGSGTDFTFTISSLQPEDIATYYCQQGNTLPYTFGQGTKVEIKRTVAAPSVFIFPPSDEQLKSGTASVVCLLNNFYPREAKVQWKVDNALQSGNSQESVTEQDSKDSTYSLSSTLTLSKADYEKHKVYACEVTHQGLSSPVTKSFNRGEC |
